# Data from the supplement of paper PMC8728848.
# Some of the results follow.
# B1: PNGase F (Flavobacterium meningosepticum) (protein)
# chain: GIPAPADNTVNIKTFDKVKNAFGDGLSQSAEGTFTFPADVTAVKTIKMFIKNECPNKTCDEWDRYANVYVKNKTTGEWYEIGRFITPYWVGTEKLPRGLEIDVTDFKSLLSGNTELKIYTETWLAKGREYSVDFDIVYGTPDYKYSAVVPVVQYNKSSIDGVPYGKAHTLALKKNIQLPTNTEKAYLRTTISGWGHAKPYDAGSRGCAEWCFRTHTIAINNSNTFQHQLGALGCSANPINNQSPGNWTPDRAGWCPGMAVPTRIDVLNNSLIGSTFSYEYKFQNWTNNGTNGDAFYAISSFVIAKSNTPISAPVVTNLDPHHHHHH
# Tests used:
# Test in all cases: glycan array binding signal (z-score within array); higher = stronger binding
# Details in all cases: glycan notation: IUPAC condensed, linker removed
# [1] = molecular target: Fuc(a1-2)Gal(b1-4)GlcNAc(b1-3)Gal(b1-4)GlcNAc(b1-3)Gal(b1-4)GlcNAc
# How it was run: (§1)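 Glycan array data were curated from 3228 arrays in the Consortium for Functional Glycomics database and kept only where the protein sequence was available. Glycan names were converted to IUPAC-condensed notation, and columns mapping to the same glycan were averaged. The binding signal is a within-array Z-score, averaged across arrays of the same protein sequence at different concentrations or buffers and across linkers. Negative Z-scores can be read as non-binding.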
# [2] = molecular target: Fuc(a1-2)Gal(b1-4)GlcNAc(b1-3)GalNAc
# How it was run: as §1
# [3] = molecular target: Fuc(a1-2)Gal(b1-4)GlcNAc(b1-3)[Fuc(a1-2)Gal(b1-4)GlcNAc(b1-6)]GalNAc
# How it was run: as §1
# [4] = molecular target: Fuc(a1-2)Gal(b1-4)GlcNAc(b1-3)[Fuc(a1-3)[Gal(b1-4)]GlcNAc(b1-6)]Gal(b1-4)Glc
# How it was run: as §1
# [5] = molecular target: Fuc(a1-2)Gal(b1-4)GlcNAc(b1-6)GalNAc
# How it was run: as §1
# [6] = molecular target: Fuc(a1-2)Gal(b1-4)GlcNAc6S
# How it was run: as §1
# [7] = molecular target: Fuc(a1-2)Gal(b1-4)[Fuc(a1-3)]GlcNAc
# How it was run: as §1
# [8] = molecular target: Fuc(a1-2)Gal(b1-4)[Fuc(a1-3)]GlcNAc(b1-2)Man(a1-3)[Fuc(a1-2)Gal(b1-4)[Fuc(a1-3)]GlcNAc(b1-2)Man(a1-6)]Man(b1-4)GlcNAc(b1-4)[Fuc(a1-6)]GlcNAc
# How it was run: as §1
# [9] = molecular target: Fuc(a1-2)Gal(b1-4)[Fuc(a1-3)]GlcNAc(b1-2)[Fuc(a1-2)Gal(b1-4)[Fuc(a1-3)]GlcNAc(b1-4)]Man(a1-3)[Fuc(a1-2)Gal(b1-4)[Fuc(a1-3)]GlcNAc(b1-2)Man(a1-6)]Man(b1-4)GlcNAc(b1-4)GlcNAc
# How it was run: as §1
# [10] = molecular target: Fuc(a1-2)Gal(b1-4)[Fuc(a1-3)]GlcNAc(b1-3)Gal(b1-4)[Fuc(a1-3)]GlcNAc
# How it was run: as §1
# [11] = molecular target: Fuc(a1-2)Gal(b1-4)[Fuc(a1-3)]GlcNAc(b1-3)Gal(b1-4)[Fuc(a1-3)]GlcNAc(b1-3)Gal(b1-4)[Fuc(a1-3)]GlcNAc
# How it was run: as §1
# [12] = molecular target: Fuc(a1-2)Gal(b1-4)[Fuc(a1-3)]GlcNAc(b1-3)GalNAc
# How it was run: as §1
# [13] = molecular target: Fuc(a1-2)Gal(b1-4)[Fuc(a1-3)]GlcNAc(b1-3)[Neu5Ac(a2-6)Gal(b1-4)GlcNAc(b1-6)]Gal(b1-4)Glc
# How it was run: as §1
# [14] = molecular target: Fuc(a1-2)Gal3S(b1-4)GlcNAc
# How it was run: as §1
# [15] = molecular target: Fuc(a1-2)Gal6S(b1-3)GlcNAc
# How it was run: as §1
# [16] = molecular target: Fuc(a1-2)Gal6S(b1-3)GlcNAc6S
# How it was run: as §1
# [17] = molecular target: Fuc(a1-2)Gal6S(b1-4)Glc
# How it was run: as §1
# [18] = molecular target: Fuc(a1-2)Gal6S(b1-4)Glc6S
# How it was run: as §1
# [19] = molecular target: Fuc(a1-2)[Gal(a1-3)]Gal
# How it was run: as §1
# [20] = molecular target: Fuc(a1-2)[Gal(a1-3)]Gal(b1-3)GalNAc
# How it was run: as §1
# [21] = molecular target: Fuc(a1-2)[Gal(a1-3)]Gal(b1-3)GalNAc(b1-3)Gal(a1-4)Gal(b1-4)Glc
# How it was run: as §1
# [22] = molecular target: Fuc(a1-2)[Gal(a1-3)]Gal(b1-3)GlcNAc
# How it was run: as §1
# [23] = molecular target: Fuc(a1-2)[Gal(a1-3)]Gal(b1-3)GlcNAc(b1-2)Man(a1-3)[Fuc(a1-2)[Gal(a1-3)]Gal(b1-3)GlcNAc(b1-2)Man(a1-6)]Man(b1-4)GlcNAc(b1-4)GlcNAc
# How it was run: as §1
# [24] = molecular target: Fuc(a1-2)[Gal(a1-3)]Gal(b1-3)GlcNAc(b1-2)Man(a1-3)[Fuc(a1-2)[Gal(a1-3)]Gal(b1-3)GlcNAc(b1-2)Man(a1-6)]Man(b1-4)GlcNAc(b1-4)[Fuc(a1-6)]GlcNAc
# How it was run: as §1
# [25] = molecular target: Fuc(a1-2)[Gal(a1-3)]Gal(b1-3)GlcNAc(b1-3)GalNAc
# How it was run: as §1
# [26] = molecular target: Fuc(a1-2)[Gal(a1-3)]Gal(b1-3)GlcNAc(b1-6)GalNAc
# How it was run: as §1
# [27] = molecular target: Fuc(a1-2)[Gal(a1-3)]Gal(b1-4)Glc
# How it was run: as §1
# [28] = molecular target: Fuc(a1-2)[Gal(a1-3)]Gal(b1-4)GlcNAc
# How it was run: as §1
# [29] = molecular target: Fuc(a1-2)[Gal(a1-3)]Gal(b1-4)GlcNAc(b1-2)Man
# How it was run: as §1
# [30] = molecular target: Fuc(a1-2)[Gal(a1-3)]Gal(b1-4)GlcNAc(b1-2)Man(a1-3)[Fuc(a1-2)[Gal(a1-3)]Gal(b1-4)GlcNAc(b1-2)Man(a1-6)]Man(b1-4)GlcNAc(b1-4)GlcNAc
# How it was run: as §1
binder,measurement,setting,value
B1,glycan array binding signal (z-score),[1],-0.312
same,glycan array binding signal (z-score),[2],-0.046
same,glycan array binding signal (z-score),[3],0.021
same,glycan array binding signal (z-score),[4],-0.14
same,glycan array binding signal (z-score),[5],-0.034
same,glycan array binding signal (z-score),[6],0.153
same,glycan array binding signal (z-score),[7],-0.097
same,glycan array binding signal (z-score),[8],-0.143
same,glycan array binding signal (z-score),[9],-0.044
same,glycan array binding signal (z-score),[10],-0.304
same,glycan array binding signal (z-score),[11],0.031
same,glycan array binding signal (z-score),[12],-0.154
same,glycan array binding signal (z-score),[13],-0.323
same,glycan array binding signal (z-score),[14],-0.157
same,glycan array binding signal (z-score),[15],-0.138
same,glycan array binding signal (z-score),[16],0.15
same,glycan array binding signal (z-score),[17],-0.094
same,glycan array binding signal (z-score),[18],0.295
same,glycan array binding signal (z-score),[19],-0.116
same,glycan array binding signal (z-score),[20],-0.244
same,glycan array binding signal (z-score),[21],0.033
same,glycan array binding signal (z-score),[22],0.043
same,glycan array binding signal (z-score),[23],-0.185
same,glycan array binding signal (z-score),[24],0.023
same,glycan array binding signal (z-score),[25],0.414
same,glycan array binding signal (z-score),[26],-0.032
same,glycan array binding signal (z-score),[27],-0.065
same,glycan array binding signal (z-score),[28],-0.268
same,glycan array binding signal (z-score),[29],0.361
same,glycan array binding signal (z-score),[30],-0.273
